# Assay results as given in patent publication US20060165687A1, “Vaccine adjuvant” (DUKE UNIVERSITY, priority 2004, published 2006).
# Tested on: thymocytes (thymopoiesis)
# Conditions: day 10 post treatment with Y13 (0.25 mg) and TLR agonist
substance,measurement,value
flagellin [TLR-5 ligand],thymopoiesis (number of thymocytes isolated),suppress thymopoiesis
